Measured values from PubChem BioAssay (NCATS).
Several values for one entry are separate records, joined by “and”; a condition that tells them apart may be missing. Equal entries are not always repeated. Inconclusive means that the source gave no clear call. Such entries were picked first, then a sample of the others. Potencies beside an inconclusive call are fits to weak or partial responses and may not hold up. The source holds several records for some structures; these can differ, active in one and inactive in another. Activity calls are given as the source filed them. Calls come from the whole dose curve; as a rule, active = well fitted activation curve with a large enough effect; inconclusive = small, poorly fitted or top-dose-only effect; inactive = no such curve, though single readings can be large or run the other way.

target: Cellular tumor antigen p53 (Homo sapiens) (UniProt P04637); assay: Primary qHTS for small molecule compounds that upregulate eGFP-tagged delta133p53alpha (in N-terminal) cells. (AID 2060322); conditions: NCI-H358 eGFP-delta133p53alpha fluorescence, 24 h; activation: stronger effect = higher value;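 note: cells pre-induced with doxycycline then dosed without doxycycline; nearly all actives have a fitted effect of over 75% in size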;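 for activation: series mostly up to about 56 µM; 0% = DMSO vehicle and 100% = reference activator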
In short: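 NCI-H358 cells pre-induced 24 h with 10 ng/ml doxycycline for eGFP-delta133p53alpha, plated dox-free and exposed 24 h at 37C to titrated compounds. Fixed, Hoechst-stained; gated GFP peak intensity by laser scanning cytometry, normalized to DMSO (0%) and 57.5 uM 5-azacytidine (100%).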
Potency is the fitted concentration of half-maximal effect; tags give direction and shape of the fitted curve.

Chain of UniProt P04637 (P04637 whole entry, looked up): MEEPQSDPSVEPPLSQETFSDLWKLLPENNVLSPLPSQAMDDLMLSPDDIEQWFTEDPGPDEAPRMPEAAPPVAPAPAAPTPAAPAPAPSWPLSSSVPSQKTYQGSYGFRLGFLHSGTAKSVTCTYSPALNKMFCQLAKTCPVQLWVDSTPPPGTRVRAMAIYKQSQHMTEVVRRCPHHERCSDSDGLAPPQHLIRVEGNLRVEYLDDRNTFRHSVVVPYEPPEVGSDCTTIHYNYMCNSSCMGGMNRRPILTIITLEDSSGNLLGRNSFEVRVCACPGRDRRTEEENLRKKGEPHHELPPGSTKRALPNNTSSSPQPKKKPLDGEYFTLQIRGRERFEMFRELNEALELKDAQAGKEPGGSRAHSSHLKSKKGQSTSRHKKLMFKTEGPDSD

Q: `Cc1cc(N)c2ccccc2[n+]1CCCCCCCCCC[n+]1c(C)cc(N)c2ccccc21` was tested. Which Potency did it give?
A: inconclusive: 37.9 µM [activator, single point]

Q: For `COC(=O)C1C(CC(C)=O)C=CC(O)C12Oc1cc(C)cc(O)c1C2=O` (centres undefined), which Potency is on record?
A: inconclusive: 1.32 µM [activator, full curve]

Q: `C#Cc1cccc(Nc2ncnc3cc(OC)c(OCCCCCCC(=O)NO)cc23)c1` was tested. Which Potency did it give?
A: active: 8.63 µM and active: 5.36 µM and active: 544 nM

Q: `O=C(Nc1ccccc1Cl)c1cnc2ccc(C3CCNCC3)cn12` was tested. Which Potency did it give?
A: inconclusive: 13.5 µM [activator, partial curve]

Q: How did the Potency turn out when `CNC(=O)c1cc(Oc2ccc3nc(N[C@@H]4CCCC[C@H]4O)sc3c2)ccn1` was run?
A: inconclusive: 21.3 µM [activator, single point]

Q: `CN(C)c1nc(NC2CCC(NCCc3ccc(Br)cc3OC(F)(F)F)CC2)nc2ccccc12` (centres undefined) was tested. Which Potency did it give?
A: active: 13.5 µM

Q: Which activation does the source give for `Cn1c(CNc2ccc(C(=N)N)cc2)nc2cc(C(=O)N(CCC(=O)O)c3ccccn3)ccc21` here?
A: inactive: 22.7% and inactive: -0.477%

Q: With `C=CC(=O)N1CCC[C@@H](n2nc(-c3cccc(C(=O)Nc4ccc(C(C)C)c(C)c4)c3)c3c(N)ncnc32)C1` as the compound, how does the Potency read?
A: inconclusive: 26.9 µM [activator, single point]

Q: How did the Potency turn out when `CNc1nccc(-c2cccnc2Oc2cc(C(=O)Nc3cccc(C(F)(F)F)c3)ccc2C)n1` was run?
A: inconclusive: 30.1 µM [activator, single point]

Q: For `O=C(NCc1nc2ccccc2c(=O)n1-c1ccc(F)cc1)Nc1ccc(Cl)c(C(F)(F)F)c1`, which Potency is on record?
A: inconclusive: 37.9 µM [activator, single point]

Q: Which activation does the source give for `CCOC(=O)c1cnc2c(cnn2CC)c1NN=C(C)C` here?
A: inactive: 11.7% and inactive: -44.5%

Q: With `CNC(=O)c1cc(Oc2ccc(NC(=O)Nc3ccc(Cl)c(C(F)(F)F)c3)cc2)ccn1` as the compound, how does the Potency read?
A: inconclusive: 38.9 µM [activator, single point] and inconclusive: 37.9 µM [activator, single point]

Q: For `CC(=O)N1c2ccc(-c3ccc(C(=O)O)cc3)cc2C(Nc2ccc(Cl)cc2)CC1C` (centres undefined), which Potency is on record?
A: inconclusive: 7.57 µM [activator, full curve]

Q: `Nc1ccccc1NC(=O)c1ccc(CNc2nccc(-c3cccnc3)n2)cc1` was tested. Which Potency did it give?
A: inconclusive: 30.6 µM [activator, partial curve, poor fit]

Q: Which activation does the source give for `COCCc1ccc(OCC(O)CNC(C)C)cc1` (centres undefined) here?
A: inactive: 4.18% and inactive: 10.1%

Q: `C[C@@H]1CCN(C(=O)N2CCCC2)C[C@@H]1N(C)c1ncnc2[nH]ccc12` was tested. Which activation did it give?
A: inactive: -10.7%

Q: Which activation does the source give for `Cc1c2cc(c(C(=O)O)c1C)OC1OC(C(O)C(O)C1O)C(O)C(O)C1OC(O2)C(O)C(O)C1O` (centres undefined) here?
A: inactive: -5.34%

Q: For `Cc1[nH]nc2ccc(-c3cncc(OC[C@@H](N)Cc4ccccc4)c3)cc12`, which Potency is on record?
A: inconclusive: 0.849 µM [activator, partial curve, poor fit]

Q: Which Potency does the source give for `Cc1cn(CCN2CCN(c3ccccc3-c3cc(C#N)cc(C(=O)NCCCN4CCCC4)c3)CC2)c2ccccc12` here?
A: inconclusive: 37.9 µM [activator, single point]

Q: `Cc1coc2c1C(=O)C(=O)c1c-2ccc2c1CCCC2(C)C` was tested. Which Potency did it give?
A: active: 8.49 µM

Q: How did the activation turn out when `CCCN1CCN(c2ccc(C(=O)NC3(C(=O)NCC#N)CCCCC3)cc2)CC1` was run?
A: inactive: -6.68%

Q: With `COC(C)(C)CCn1nc(Nc2c(C)cccc2C)c2cnc(Nc3ccc(OCCN4CCCC4)c(F)c3)nc21` as the compound, how does the Potency read?
A: inconclusive: 2.69 µM [activator, partial curve, poor fit]

Q: `CN(C[C@@H]1COCCO1)S(=O)(=O)Nc1ccc2ccc3ncc(-c4cnn(C)c4)cc3c(=O)c2c1` was tested. Which Potency did it give?
A: active: 8.63 µM

Q: Which Potency does the source give for `Cc1cc(Nc2nc(N[C@@H](C)c3ccc(F)cc3)c(C#N)cc2F)n[nH]1` here?
A: inconclusive: 1.22 µM [activator, full curve, poor fit] and active: 16.9 µM and inconclusive: 43.2 µM [activator, partial curve, poor fit]

Q: For `Nc1ccn(C2CO[C@H](CO)O2)c(=O)n1` (some centres undefined), which activation is on record?
A: inactive: -4.75%

Q: How did the Potency turn out when `COC(=O)c1ccc2c(C(=Nc3ccc(N(C)C(=O)CN4CCN(C)CC4)cc3)c3ccccc3)c(O)[nH]c2c1` was run?
A: inconclusive: 37.9 µM [activator, single point]

Q: With `COc1ccc(CCC(=O)c2c(O)cc(O[C@@H]3O[C@H](CO)[C@@H](O)[C@H](O)[C@H]3O[C@@H]3O[C@@H](C)[C@H](O)[C@@H](O)[C@H]3O)cc2O)cc1O` as the compound, how does the activation read?
A: inactive: 8.33%

Q: With `COCCNCCCn1c(C(=O)CF)c(-c2ccc(C)cc2)c2c(N)ncnc21` as the compound, how does the Potency read?
A: inconclusive: 27.3 µM [activator, partial curve, poor fit]

Q: How did the Potency turn out when `Nc1nccn2c(C3CCC(C(=O)O)CC3)nc(-c3cc4cccc(Cl)c4[nH]3)c12` (centres undefined) was run?
A: inconclusive: 19 µM [activator, single point]

Q: `COc1ccccc1OCCN1CC(COc2cccc3[nH]c4ccccc4c23)OCC1=O` (centres undefined) was tested. Which Potency did it give?
A: inconclusive: 26.9 µM [activator, single point]

Q: Which Potency does the source give for `Oc1cc(-c2nc(-c3ccccc3)[nH]c2-c2ccncc2)ccc1Cl` here?
A: inconclusive: 6.75 µM [activator, partial curve]

Q: `COc1cc2ncnc(Nc3cc(Br)c(O)c(Br)c3)c2cc1OC` was tested. Which Potency did it give?
A: inconclusive: 7.57 µM [activator, partial curve, poor fit]

Q: With `Cc1ccc(O)cc1Nc1ccnc(Nc2cccc(C(N)=O)c2)n1` as the compound, how does the Potency read?
A: inconclusive: 21.3 µM [activator, single point]

Q: How did the Potency turn out when `COc1ccc(-c2cc(C(O)C3CCCCN3)c3ccccc3n2)cc1` (centres undefined) was run?
A: inconclusive: 33.8 µM [activator, single point]

Q: How did the Potency turn out when `CN(C)c1ccc(Nc2nc(N)n(C(=O)c3c(F)cccc3F)n2)cc1` was run?
A: inconclusive: 38.5 µM [activator, single point]

Q: Which Potency does the source give for `Clc1ccc(C(Cn2ccnc2)OCc2c(Cl)cccc2Cl)c(Cl)c1` (centres undefined) here?
A: inconclusive: 0.138 µM [activator, single point]

Q: How did the Potency turn out when `Cc1nc(Nc2n[nH]c3c2CN(C(=O)N[C@H](CN(C)C)c2ccccc2)C3(C)C)c2sccc2n1` was run?
A: inconclusive: 24.3 µM [activator, partial curve, poor fit] and active: 10.7 µM

Q: How did the Potency turn out when `Cn1ncc(Cl)c1-c1cc(C(=O)NC(CN)Cc2ccc(F)c(F)c2)oc1Cl` (centres undefined) was run?
A: inconclusive: 37.9 µM [activator, single point]

Q: `O[C@@H](COc1cccc2ncccc12)CN1CCN(C2c3ccccc3[C@@H]3[C@H](c4ccccc42)C3(F)F)CC1` (some centres undefined) was tested. Which activation did it give?
A: inconclusive: 31.5% [activator]
